From PubChem BioAssay AID1454 (National Center for Advancing Translational Sciences (NCATS), 2008)
Screen size: about 130,000 compounds; about 550 (0.42%) were called active. Inconclusive means that the source gave no clear call. Such entries were picked first, then a sample of the others. Calls follow the shape of the dose curve; as a rule, active = well fitted inhibition curve with a large enough effect; inconclusive = small, poorly fitted or top-dose-only effect, or effect the other way; inactive = flat fitted curve, though single readings scatter. No potency is given beside an inconclusive call; the fits are too rough.

Assay: qHTS Assay for Inhibitors of the ERK Signaling Pathway using a Homogeneous Screening Assay; Stimulation with EGF; also: nearly all actives have a fitted effect of over 55% in size
Details: HEK293-V1b, EGF-stimulated phospho-ERK AlphaScreen
Procedure, shortened: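 Concentration-response of compounds against EGF-driven ERK phosphorylation in V1b-expressing HEK293 cells; 30 min preincubation, 5 min EGF, AlphaScreen detection; Normalized to DMSO basal and 25 nM EGF.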
Potency is read from the fitted curve at half-maximal effect; tags tell the direction and shape of the fitted curve.

| SMILES | Potency |
| --- | --- |
| S=C(NCC1CCCO1)N1CCN(c2nc(-c3ccccc3)cs2)CC1 (stereo not given) | inconclusive [inhibitor, single point] |
| CCN1CCN(CCCNC(=O)c2ccc(/C=C3/Sc4ccccc4N(Cc4ccccc4F)C3=O)cc2)CC1 | inconclusive [inhibitor, single point] |
| C1=C(CCNc2ncnc3nc[nH]c23)CCCC1 | inactive |
| COc1ccc2c(c1)C(=O)[C@H](OC(=O)NCCc1ccc(OC)c(OC)c1)[C@@H](c1ccc(OC)c(Br)c1)O2 | inactive |
| COCCn1c(=O)cnc2cnc(OCc3ccccc3)nc21 | inactive |
| CCNc1c(C(=O)O)ccc2c1C(=O)c1ccccc1C2=O | inconclusive [inhibitor, partial curve] |
| C/C(=C/C(=O)N1CCc2ccccc21)C(=O)O | inactive |
| S=C1NCN(CCc2ccccc2)CN1Cc1ccccc1 | inconclusive [activator, partial curve, poor fit] |
| Cc1cccc2nc(CSc3nc4cc([N+](=O)[O-])ccc4s3)cn12 | inconclusive [inhibitor, single point] |
| COc1ccc(-c2nc(NC(=O)c3[nH]c(C)c(C(C)=O)c3C)sc2C)cc1 | inconclusive [inhibitor, partial curve] |
| COCC1=Cc2cc3c(cc2C(C(C(=O)OC)C(=O)OC)N1C(=O)OC)OCO3 (stereo not given) | inactive |
| N#CC1=C(N)NC(SCC(=O)c2ccc(Br)cc2)=C(C#N)C12CCCCC2 | inconclusive [inhibitor, single point] |
| O=C(/C=C/c1ccc(S(=O)(=O)N2CCOCC2)cc1)NCc1ccc(Cl)cc1 | inconclusive [inhibitor, single point] |
| COc1ccc(NC(=S)N(CCCN2CCOCC2)Cc2cn(C)c3ccccc23)cc1OC | inactive |
| O=C1OC(c2ccccc2)=NC12CC2c1ccc(Cl)cc1 (stereo not given) | inconclusive [inhibitor, single point] |
| CC(C)C[C@H](NC(=O)c1[nH]cnc1C(=O)Nc1ccccc1)C(=O)OC(C)(C)C | inconclusive [inhibitor, single point] |
| COc1ccc(N(C)S(=O)(=O)c2cccc(C(=O)NC3CCCC3)c2)cc1 | inconclusive [activator, full curve, poor fit] |
| COc1ccc(-c2nnc(CSc3nc4ccccc4c(=O)n3CC3CCCO3)o2)cc1OC (stereo not given) | inconclusive [inhibitor, single point] |
| O=C1C2CCCCC2C(=O)N1c1ccc(NC2CCN(Cc3ccccc3)CC2)c([N+](=O)[O-])c1 (stereo not given) | inconclusive [inhibitor, single point] |
| Cc1ccc(-n2c(O)c(C=Nc3ccccc3-c3n[nH]c(=S)[nH]c3=O)c3ccccc3c2=O)cc1C | inactive |

| SMILES | Potency |
| --- | --- |
| CCC(CC)NC(=O)Nc1ccccc1C(F)(F)F | inconclusive [inhibitor, single point] |
| OC(CNCC1CCCO1)Cn1c2ccc(Br)cc2c2cc(Br)ccc21 (stereo not given) | inconclusive [inhibitor, single point] |
| CC(=O)N1CCN(c2ccc(NC(=O)c3ccc4c(c3)OCCO4)cc2Cl)CC1 | inconclusive [inhibitor, single point] |
| CCc1ccc(/C=C2\Oc3c(ccc(O)c3CN3CCN(C)CC3)C2=O)cc1 | inactive |
| CN(C)CCNC(=O)/C(=C/c1ccc(-c2ccc(Cl)cc2)o1)NC(=O)c1ccccc1 | inconclusive [inhibitor, single point] |
| CC(=O)O[C@H]1C(=O)[C@@]2(C)C([C@H](OC(=O)c3ccccc3)[C@]3(O)C[C@H](OC(=O)[C@H](O)[C@@H](NC(=O)c4ccccc4)c4ccccc4)C(C)=C1C3(C)C)[C@]1(OC(C)=O)CO[C@@H]1C[C@@H]2O (stereo not given in full) | inactive |
| COc1ccc(C(=O)CC(=O)c2ccc(C(C)(C)C)cc2)cc1 | inconclusive [activator, single point] |
| Oc1c(N=NC(=S)Nc2ccccc2F)c2ccccc2n1Cc1ccc(Cl)cc1 | inconclusive [inhibitor, partial curve] |
| O=C1CSc2ccc(C(=O)Nc3cccc(S(=O)(=O)Nc4ccc(Br)cc4)c3)cc2N1 | inconclusive [inhibitor, single point] |
| Cc1ccc(-c2csc(NC(=O)C3CC(=O)N(Cc4ccco4)C3)n2)cc1 (stereo not given) | inactive |
| N#CCCn1c(=O)c(-c2cccs2)nc2cnc(N3CCNCC3)nc21 | inactive |
| CN(C)CCCn1c(SCC(=O)Nc2nc(-c3cccc(Br)c3)cs2)nc2ccccc2c1=O | inconclusive [inhibitor, single point] |
| CC1=NN(c2ccccc2)C(=O)/C1=C/c1cc(C)n(C2CC2)c1C | inconclusive [inhibitor, partial curve] |
| COc1ccc(-c2cc(=O)c3c(O)cc(O[C@H]4OC(COC5OC(C)C(O)C(O)[C@H]5O)C(O)C(O)C4O)cc3o2)cc1O (stereo not given in full) | inactive |
| CCN(CC)S(=O)(=O)c1ccc(C(=O)N(c2ccc(C)cc2)C2C=CS(=O)(=O)C2)cc1 (stereo not given) | inconclusive [activator, full curve, poor fit] |
| Cc1sc2ncnc(NCC3COc4ccccc4O3)c2c1C (stereo not given) | inconclusive [inhibitor, single point] |
| O=c1c(-c2ccc(Cl)cc2)nc2cnc(N3CCNCC3)nc2n1Cc1ccc(F)cc1 | inconclusive [inhibitor, single point] |
| CN(c1ccccc1)S(=O)(=O)c1cccc(NC(=O)c2cncc(Br)c2)c1 | inconclusive [inhibitor, single point] |
| C#CCCCCCCCCCCCC(O)CC(O)COC(C)=O (stereo not given) | inconclusive [inhibitor, single point] |
| c1ccc(COC2CCCN(Cc3nc(Cc4ccccc4)no3)C2)cc1 (stereo not given) | inconclusive [activator, full curve, poor fit] |
